Laboratory results published in the supplement of paper PMC12217912.
The list shows a part of the results. Sequences were assembled here from the parent chain. Inactive controls read about 0.05.

B1: TEV protease; numbered along this chain (parent)
chain: MGESLFKGPRDYNPISSSICHLTNESDGHTTSLYGIGFGPFIITNKHLFRRNNGTLVVQSLHGVFKVKDTTTLQQHLVDGRDMIIIRMPKDFPPFPQKLKFREPQREERICLVTTNFQTKSMSSMVSDTSCTFPSGDGIFWKHWIQTKDGQCGSPLVSTRDGFIVGIHSASNFTNTNNYFTSVPKNFMELLTNQEAQQWVSGWRLNADSVLWGGHKVFMVKPEEPFQPVKEATQL

Variants of: B1
Assay: raw area under fraction-flipped curve 0-4 h after induction (AUC4h, not background-subtracted), DNA-recorder readout of cleavage of the substrate (dimensionless); higher = more cleavage of the substrate by the protease variant
Conditions: temperature: 34 °C; time window: 0-4 h after rhamnose induction
Protocol: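 In vivo DNA recorder in E. coli TOP10(DE3) ΔrhaA at 34 °C. Each TEVp single-site mutant (parent TEVp 0) is paired with a single-site variant of the 7-mer TEVs (canonical ENLYFQ|S). The substrate sits between flexible linkers in a Bxb1-sfGFP-TEVs-SsrA fusion, so cleavage stabilises Bxb1 and speeds flipping of a recombination array, read by NGS. The value is the raw area under the fraction-flipped curve over 0-4 h after rhamnose induction (AUC4h), with ≥20 reads per time point. It is not background-subtracted; inactive controls average about 0.047.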
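Also: Bxb1 expression induced with 0.2% (w/v) L-rhamnose at OD600 near 0.5, cultures sampled hourly, flipped fraction per protease–substrate barcode pair counted by paired-end Illumina sequencing.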

## MGESLFKGPRDYNPISSSICHLTNESDGHTTSLYGIGFGPFIITNKHLFRRNNGTLVVQSLHGVFKVKDTTTLQQHLVDGRDMIIIRMPKDFPPFPQKLKFREPQREERICLVTTNFQTKSMSSMVSDTSCTFPSGDGIFWKHWIQTKDGQCGSPLVSTRDGFIVGIHSASNFTNTNNYFTSVPKNFMELLTNQEAQQWVSGERLNADSVLWGGHKVFMVKPEEPFQPVKEATQL [W203E]
  area with substrate ANLYFQS: 0.0542
  area with substrate CNLYFQS: 0.063
  area with substrate GNLYFQS: 0.0707
  area with substrate HNLYFQS: 0.0516
  area with substrate INLYFQS: 0.0569
  area with substrate KNLYFQS: 0.0543
  area with substrate PNLYFQS: 0.069
  area with substrate QNLYFQS: 0.0602
  area with substrate RNLYFQS: 0.0494
  area with substrate TNLYFQS: 0.0666
  area with substrate WNLYFQS: 0.0552
  area with substrate YNLYFQS: 0.0743

## MGESLFKGPRDYNPISSSICHLTNESDGHTTSLYGIGFGPFIITNKHLFRRNNGTLVVQSLHGVFKVKDTTTLQQHLVDGRDMIIIRMPKDFPPFPQKLKFREPQREERICLVTTNFQTKSMSSMVSDTSCTFPSGDGIFWKHWIQTKDGQCGSPLVSTRDGFIVGIHSASNFTNTNNYFTSVPKNFMELLTNQEAQQWVSGWQLNADSVLWGGHKVFMVKPEEPFQPVKEATQL [R204Q]
  area with substrate ANLYFQS: 0.0695
  area with substrate DNLYFQS: 0.0904
  area with substrate GNLYFQS: 0.0278
  area with substrate HNLYFQS: 0.0525
  area with substrate INLYFQS: 0.0656
  area with substrate KNLYFQS: 0.0674
  area with substrate LNLYFQS: 0.0721
  area with substrate MNLYFQS: 0.0785
  area with substrate NNLYFQS: 0.0471
  area with substrate PNLYFQS: 0.0701
  area with substrate SNLYFQS: 0.0648
  area with substrate WNLYFQS: 0.0607

## MGESLFKGPRDYNPISSSICHLTNESDGHTTSLYGIGFGPFIITNKHLFRRNNGTLVVQSLHGVFKVKDTTTLQQHLVDGRDMIIIRMPKDFPPFPQKLKFREPQREERICLVTTNFQTKSMSSMVSDTSCTFPSGDGIFWKHWIQTKDGQCGSPLVSTRDGFIVGIHSASNFTNTNNYFTSVPKNFMELLTNQEAQQWVSGWWLNADSVLWGGHKVFMVKPEEPFQPVKEATQL [R204W]
  area with substrate ANLYFQS: 0.052
  area with substrate CNLYFQS: 0.0654
  area with substrate FNLYFQS: 0.0688
  area with substrate HNLYFQS: 0.0653
  area with substrate INLYFQS: 0.0651
  area with substrate KNLYFQS: 0.0676
  area with substrate PNLYFQS: 0.07
  area with substrate QNLYFQS: 0.082
  area with substrate SNLYFQS: 0.0739
  area with substrate TNLYFQS: 0.0561
  area with substrate VNLYFQS: 0.0694
  area with substrate WNLYFQS: 0.0562
  area with substrate YNLYFQS: 0.063

## MGESLFKGPRDYNPISSSICHLTNESDGHTTSLYGIGFGPFIITNKHLFRRNNGTLVVQSLHGVFKVKDTTTLQQHLVDGRDMIIIRMPKDFPPFPQKLKFREPQREERICLVTTNFQTKSMSSMVSDTSCTFPSGDGIFWKHWIQTKDGQCGSPLVSTRDGFIVGIHSASNFTNTNNYFTSVPKNFMELLTNQEAQQWVSGWRENADSVLWGGHKVFMVKPEEPFQPVKEATQL [L205E]
  area with substrate ANLYFQS: 0.0952
  area with substrate CNLYFQS: 0.0775
  area with substrate GNLYFQS: 0.045
  area with substrate INLYFQS: 0.0685
  area with substrate LNLYFQS: 0.0651
  area with substrate PNLYFQS: 0.0705
  area with substrate QNLYFQS: 0.0512
  area with substrate SNLYFQS: 0.0642
  area with substrate WNLYFQS: 0.0504

## MGESLFKGPRDYNPISSSICHLTNESDGHTTSLYGIGFGPFIITNKHLFRRNNGTLVVQSLHGVFKVKDTTTLQQHLVDGRDMIIIRMPKDFPPFPQKLKFREPQREERICLVTTNFQTKSMSSMVSDTSCTFPSGDGIFWKHWIQTKDGQCGSPLVSTRDGFIVGIHSASNFTNTNNYFTSVPKNFMELLTNQEAQQWVSGWRLTADSVLWGGHKVFMVKPEEPFQPVKEATQL [N206T]
  area with substrate ANLYFQS: 0.0548
  area with substrate CNLYFQS: 0.0876
  area with substrate FNLYFQS: 0.0673
  area with substrate HNLYFQS: 0.0613
  area with substrate INLYFQS: 0.0785
  area with substrate KNLYFQS: 0.0573
  area with substrate NNLYFQS: 0.0725
  area with substrate PNLYFQS: 0.0661
  area with substrate SNLYFQS: 0.065
  area with substrate TNLYFQS: 0.0608
  area with substrate WNLYFQS: 0.0833

## MGESLFKGPRDYNPISSSICHLTNESDGHTTSLYGIGFGPFIITNKHLFRRNNGTLVVQSLHGVFKVKDTTTLQQHLVDGRDMIIIRMPKDFPPFPQKLKFREPQREERICLVTTNFQTKSMSSMVSDTSCTFPSGDGIFWKHWIQTKDGQCGSPLVSTRDGFIVGIHSASNFTNTNNYFTSVPKNFMELLTNQEAQQWVSGWRLNEDSVLWGGHKVFMVKPEEPFQPVKEATQL [A207E]
  area with substrate ANLYFQS: 0.101
  area with substrate CNLYFQS: 0.0576
  area with substrate KNLYFQS: 0.0517
  area with substrate LNLYFQS: 0.0582
  area with substrate PNLYFQS: 0.0714
  area with substrate SNLYFQS: 0.0673
  area with substrate TNLYFQS: 0.1

## MGESLFKGPRDYNPISSSICHLTNESDGHTTSLYGIGFGPFIITNKHLFRRNNGTLVVQSLHGVFKVKDTTTLQQHLVDGRDMIIIRMPKDFPPFPQKLKFREPQREERICLVTTNFQTKSMSSMVSDTSCTFPSGDGIFWKHWIQTKDGQCGSPLVSTRDGFIVGIHSASNFTNTNNYFTSVPKNFMELLTNQEAQQWVSGWRLNVDSVLWGGHKVFMVKPEEPFQPVKEATQL [A207V]
  area with substrate ANLYFQS: 0.0569
  area with substrate DNLYFQS: 0.0807
  area with substrate GNLYFQS: 0.06
  area with substrate HNLYFQS: 0.0657
  area with substrate KNLYFQS: 0.0657
  area with substrate LNLYFQS: 0.0713
  area with substrate MNLYFQS: 0.0555
  area with substrate NNLYFQS: 0.0702
  area with substrate RNLYFQS: 0.0622
  area with substrate TNLYFQS: 0.0701
  area with substrate VNLYFQS: 0.0687
  area with substrate WNLYFQS: 0.0628
  area with substrate YNLYFQS: 0.0651

## MGESLFKGPRDYNPISSSICHLTNESDGHTTSLYGIGFGPFIITNKHLFRRNNGTLVVQSLHGVFKVKDTTTLQQHLVDGRDMIIIRMPKDFPPFPQKLKFREPQREERICLVTTNFQTKSMSSMVSDTSCTFPSGDGIFWKHWIQTKDGQCGSPLVSTRDGFIVGIHSASNFTNTNNYFTSVPKNFMELLTNQEAQQWVSGWRLNYDSVLWGGHKVFMVKPEEPFQPVKEATQL [A207Y]
  area with substrate ANLYFQS: 0.0611
  area with substrate CNLYFQS: 0.0509
  area with substrate INLYFQS: 0.0528
  area with substrate LNLYFQS: 0.0699
  area with substrate NNLYFQS: 0.0815
  area with substrate TNLYFQS: 0.0699

## MGESLFKGPRDYNPISSSICHLTNESDGHTTSLYGIGFGPFIITNKHLFRRNNGTLVVQSLHGVFKVKDTTTLQQHLVDGRDMIIIRMPKDFPPFPQKLKFREPQREERICLVTTNFQTKSMSSMVSDTSCTFPSGDGIFWKHWIQTKDGQCGSPLVSTRDGFIVGIHSASNFTNTNNYFTSVPKNFMELLTNQEAQQWVSGWRLNADSVCWGGHKVFMVKPEEPFQPVKEATQL [L211C]
  area with substrate ANLYFQS: 0.0622
  area with substrate DNLYFQS: 0.058
  area with substrate HNLYFQS: 0.0492
  area with substrate LNLYFQS: 0.0641
  area with substrate NNLYFQS: 0.0542
  area with substrate PNLYFQS: 0.0691
  area with substrate SNLYFQS: 0.0708
  area with substrate TNLYFQS: 0.0699
  area with substrate VNLYFQS: 0.0646
  area with substrate WNLYFQS: 0.0731
  area with substrate YNLYFQS: 0.0541

## MGESLFKGPRDYNPISSSICHLTNESDGHTTSLYGIGFGPFIITNKHLFRRNNGTLVVQSLHGVFKVKDTTTLQQHLVDGRDMIIIRMPKDFPPFPQKLKFREPQREERICLVTTNFQTKSMSSMVSDTSCTFPSGDGIFWKHWIQTKDGQCGSPLVSTRDGFIVGIHSASNFTNTNNYFTSVPKNFMELLTNQEAQQWVSGWRLNADSVVWGGHKVFMVKPEEPFQPVKEATQL [L211V]
  area with substrate ANLYFQS: 0.0586
  area with substrate DNLYFQS: 0.0937
  area with substrate GNLYFQS: 0.0823
  area with substrate HNLYFQS: 0.0346
  area with substrate INLYFQS: 0.0631
  area with substrate MNLYFQS: 0.0833
  area with substrate SNLYFQS: 0.056
  area with substrate TNLYFQS: 0.0819
  area with substrate WNLYFQS: 0.0696
  area with substrate YNLYFQS: 0.0704
